According to PubChem BioAssay (Tox21):
Inconclusive results, whose numbers are uncertain, are shown with a selection of clear calls. For part of these data: Where the call is inconclusive, the potency comes from a doubtful curve fit. Active and inactive are the calls of the source. Unless noted, the call rests on the fitted dose curve; in most records, active means well fitted curve in the direction sought with a large enough effect in the repeat runs; inconclusive means weak or mixed curves; inactive means no such curve, though single readings can be large; an effect the other way counts as inactive or inconclusive.

How the values were obtained:
[1] = qHTS assay for small molecule agonists of the p53 signaling pathway (AID 651631; calls by dose curve; further: on the % scale 0 is the no-effect control and ±100 the full control effect; nearly all actives have a fitted effect of over 15% in size); conditions: HCT-116 p53RE-bla reporter, beta-lactamase FRET ratio, 16 h; activation: at 73.3 µM (top of the series) unless noted
Outline: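 p53RE-bla HCT-116 cells; compounds 16 h, 37 °C; LiveBLAzer B/G FRET substrate 2 h RT; fluorescence intensity read-out, qHTS format.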

[2] = qHTS assay for small molecule disruptors of the mitochondrial membrane potential (AID 720635); conditions: HepG2 mitochondrial membrane potential, Mito-MPS dye ratio; ratio activity, negative = MMP loss: at 83.2 µM (top of the series) unless noted; further: potency means the concentration at half of the fitted maximal effect
Outline: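 Mitochondrial membrane potential tracked with Mito-MPS dye, red aggregates (ex 540/em 590 nm) against green monomers (ex 490/em 535 nm). Compound treatment 1 hr at 37C, dye 30 min in HepG2.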

[3] = qHTS assay for identifying genotoxic compounds that show differential cytotoxicity against isogenic chicken DT40 cell lines with known DNA damage response pathways - wild type cell line (AID 743012); conditions: DT40 wild type chicken cells viability, CellTiter-Glo, 40 h; activity change, negative = cytotoxicity: at 68.4 µM (top of the series) unless noted; further: nearly all actives have a fitted effect of over 60% in size; further: potency means the concentration at half of the fitted maximal effect; on activity change, negative = cytotoxicity: on the % scale 0 is the no-effect control and ±100 the full control effect
Outline: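 Luminescent ATP viability signal (CellTiter-Glo, 30 min RT) recorded after wild type DT40 cells were incubated with compounds for 40 h at 37 C/5% CO2.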

[4] = qHTS assay for identifying genotoxic compounds that show differential cytotoxicity against isogenic chicken DT40 cell lines with known DNA damage response pathways - Rev3 mutant cell line (AID 743014); conditions: chicken DT40 Rev3-/- viability, CellTiter-Glo, 40 h; activity, negative = cytotoxicity: at 68.4 µM (top of the series) unless noted; further: nearly all actives have a fitted effect of over 55% in size; further: potency means the concentration at half of the fitted maximal effect; on activity, negative = cytotoxicity: on the % scale 0 is the no-effect control and ±100 the full control effect
[5] = target: Peroxisome proliferator-activated receptor gamma (Homo sapiens) (UniProt P37231); test: qHTS assay to identify small molecule antagonists of the peroxisome proliferator-activated receptor gamma (PPARg) signaling pathway (AID 743191; calls by dose curve; further: on the % scale 0 is the no-effect control and ±100 the full control effect; nearly all actives have a fitted effect of over 30% in size); conditions: HEK293H PPARg-UAS-bla, beta-lactamase ratio, antagonist, 17 h; ratio activity, negative = inhibition: at 62.6 µM (top of the series) unless noted
Outline: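 Beta-lactamase reporter under UAS control in HEK293H PPARg-bla cells; compound treatment 17 h at 37C. Read-out: fluorescence intensity after 1 h room-temperature incubation with LiveBLAzer B/G FRET substrate.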

[6] = qHTS assay to identify small molecule agonists of the farnesoid-X-receptor (FXR) signaling pathway - cell viability counter screen (AID 743218); conditions: FXR-bla HEK293T viability, CellTiter-Glo luminescence, 16 h; viability change, negative = cytotoxic: at 62.6 µM (top of the series) unless noted; further: nearly all actives have a fitted effect of over 45% in size; further: potency means the concentration at half of the fitted maximal effect
Outline: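 Viability of FXR-bla HEK 293T cells is measured by ATP-based CellTiter-Glo luminescence following 16 h compound treatment at 37 C and a prior 2 h room-temperature beta-lactamase substrate step.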

[7] = target: Retinoic acid receptor RXR-alpha (Homo sapiens) (UniProt P19793); test: qHTS assay to identify small molecule agonists of the RXR signaling pathway (AID 1159527; calls by dose curve; further: nearly all actives have a fitted effect of over 35% in size; further: potency means the concentration at half of the fitted maximal effect); conditions: HEK293T RXRa-UAS-bla, beta-lactamase ratio, 16 h; activation: at 76.8 µM (top of the series) unless noted
Outline: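 Agonist mode; 9-cis retinoic acid positive control. HEK 293T UAS-bla reporter cells, 2% charcoal-stripped FBS, 16 hr compound exposure at 37 C/5% CO2. LiveBLAzer B/G FRET substrate 2 hr RT; ex 405, em 460/530 nm.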

[8] = qHTS assay to identify small molecule antagonists of the sonic hedgehog signaling (Shh) pathway (AID 1259369; calls by dose curve; further: potency means the concentration at half of the fitted maximal effect; nearly all actives have a fitted effect of over 45% in size)
Outline: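 Stable Gli1-Luc reporter NIH/3T3 clone; quantitative HTS in stimulated mode with conditioned medium. Luminescence measured after 24hr compound treatment at 37 C.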

[9] = target: Cytochrome P450 2D6 (Homo sapiens) (UniProt P10635); test: Cytochrome P450 Family 2 Subfamily D Member 6 (CYP2D6) small molecule antagonists: luciferase reporter qHTS assay (AID 1671196); further: potency means the concentration at half of the fitted maximal effect; nearly all actives have a fitted effect of over 50% in size
Outline: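 Test chemicals meet CYP2D6 plus proluciferin substrate (10 min, RT); NADPH regenerating solution then drives turnover for 1 h. Detection reagent halts the reaction; luminescence measured after 20 min.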

[10] = target: Glucocorticoid receptor (Homo sapiens) (UniProt P04150); test: qHTS assay to identify small molecule antagonists of the glucocorticoid receptor (GR) signaling pathway (AID 720692; active means well fitted inhibition curve with a large enough effect in the signal ratio in the repeat runs, not every such curve was filed as active; inconclusive means weak or mixed curves, or effect the other way; inactive means no such curve, though single readings can be large or run the other way; the % refers to the signal ratio; further: potency means the concentration at half of the fitted maximal effect); conditions: GR-bla HeLa, beta-lactamase FRET ratio, dexamethasone-stimulated, 18 h; activity change, negative = inhibition: at 58.5 µM (top of the series) unless noted
Outline: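 Quantitative HTS in antagonist format: HeLa cells expressing endogenous GR and a stably integrated GRE-bla reporter, stimulated with 5 nM dexamethasone (final) alongside test compounds for 18 h.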

[11] = qHTS assay to identify small molecule antagonists of the peroxisome proliferator-activated receptor delta (PPARd) signaling pathway - cell viability counter screen (AID 743213); conditions: PPARd-bla HEK293H viability, CellTiter-Glo luminescence, 17 h; viability change, negative = cytotoxic: at 62 µM (top of the series) unless noted; further: on the % scale 0 is the no-effect control and ±100 the full control effect; nearly all actives have a fitted effect of over 50% in size
Outline: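 Luminescence from CellTiter-Glo, added after the bla read and incubated 30 min at room temperature, gives viability of HEK293H PPARd-bla cells exposed to compounds for 17 h at 37 C with 300 nM L165041.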

[12] = target: Progesterone receptor (Homo sapiens) (UniProt P06401); test: qHTS assay to identify small molecule antagonists of the progesterone receptor (PR) signaling pathway (AID 1346795; active means well fitted inhibition curve with a large enough effect in the signal ratio in the repeat runs, not every such curve was filed as active; inconclusive means weak or mixed curves; the % refers to the signal ratio; further: on the % scale 0 is the no-effect control and ±100 the full control effect); conditions: PR-UAS-bla HEK293T, beta-lactamase FRET ratio, 16 h; activity change, negative = inhibition: at 92.4 µM (top of the series) unless noted
Outline: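 Beta-lactamase reporter, HEK293T PR-UAS-bla line; 2% charcoal-stripped FBS; 6 hr pre-incubation, 37C/5% CO2. Compound + R5020 1 nM final, 16 hr. LiveBLAzer B/G FRET substrate, 2 hr RT; fluorescence intensity read.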

[13] = qHTS assay to identify small molecule antagonists of the progesterone receptor (PR) signaling pathway - cell viability counter screen (AID 1346798); further: nearly all actives have a fitted effect of over 50% in size; further: potency means the concentration at half of the fitted maximal effect
Outline: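 Luminescence readout (CellTiter-Glo, 30 min, RT) of viability in PR-UAS-bla HEK293T cells exposed to compound and R5020 agonist for 16 hr at 37C, 5% CO2; run in the same wells as the beta-lactamase reporter read.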

[14] = qHTS assay to identify small molecule agonists of the progesterone receptor (PR) signaling pathway - cell viability counter screen (AID 1346799; calls by dose curve; further: potency means the concentration at half of the fitted maximal effect; nearly all actives have a fitted effect of over 45% in size)
Outline: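 HEK293T PR-UAS-bla, 3,000 cells/well, 2% charcoal-stripped FBS; 6 h settle, compound 16 h at 37C/5% CO2; LiveBLAzer 2 h RT, then CellTiter-Glo 30 min RT, luminescence read.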

[15] = target: Cytochrome P450 2C19 (Homo sapiens) (UniProt P33261); test: Cytochrome P450 Family 2 Subfamily C Member 19 (CYP2C19) small molecule antagonists: luciferase reporter qHTS assay (AID 1671197); further: nearly all actives have a fitted effect of over 65% in size; further: potency means the concentration at half of the fitted maximal effect
Outline: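 Light output is proportional to CYP2C19 activity: proluciferin substrate is converted to luciferin, then detected by a luciferin detection reagent that also stops the 1 h, 37C NADPH-driven reaction. Ketoconazole serves as positive control.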

[16] = target: Cytochrome P450 1A2 (Homo sapiens) (UniProt P05177); test: Cytochrome P450 Family 1 Subfamily A Member 2 (CYP1A2) small molecule antagonists: luciferase reporter qHTS assay (AID 1671199); further: nearly all actives have a fitted effect of over 50% in size; further: potency means the concentration at half of the fitted maximal effect
Outline: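 Steps: enzyme-substrate mix dispensed; test compounds and furafylline control pinned in; 10 min room temperature; NADPH regeneration solution added, 1 h; reaction stopped with luciferin detection reagent; luminescence read after 20 min.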

[17] = qHTS assay for small molecule agonists of the antioxidant response element (ARE) signaling pathway (AID 743202; active means well fitted activation curve with a large enough effect in the signal ratio in the repeat runs, not every such curve was filed as active; inconclusive means weak or mixed curves, or effect the other way; inactive means no such curve, though single readings can be large or run the other way; the % refers to the signal ratio; further: on the % scale 0 is the no-effect control and ±100 the full control effect); conditions: HepG2 ARE-bla reporter, beta-lactamase FRET, 16 h; activation: at 73.3 µM (top of the series) unless noted
Outline: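 Beta-lactamase reporter activity, read as fluorescence intensity, reflects ARE/Nrf2 pathway induction in HepG2 cells after 16 h compound exposure at 37 C; substrate loading was 2 h at room temperature.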

[18] = target: Cytochrome P450 2C9 (Homo sapiens) (UniProt P11712); test: Cytochrome P450 Family 2 Subfamily C Member 9 (CYP2C9) small molecule antagonists: luciferase reporter qHTS assay (AID 1671198)
Outline: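 Enzyme-substrate mix preincubated with compound 10 min at room temperature; reaction started with NADPH regeneration solution, 1 h 37C. Luminescent luciferin product read after 20 min detection reagent.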

[19] = target: Vitamin D3 receptor (Homo sapiens) (UniProt P11473); test: qHTS assay to identify small molecule antagonists of the vitamin D receptor (VDR) signaling pathway (AID 743223; active means well fitted inhibition curve with a large enough effect in the signal ratio in the repeat runs, not every such curve was filed as active; inconclusive means weak or mixed curves, or effect the other way; inactive means no such curve, though single readings can be large or run the other way; the % refers to the signal ratio; further: potency means the concentration at half of the fitted maximal effect); conditions: VDR-UAS-bla HEK293T, beta-lactamase FRET ratio, 16 h; activity change, negative = inhibition: at 61 µM (top of the series) unless noted
Outline: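 Beta-lactamase reporter read-out: FRET substrate fluorescence after 2 h at room temperature, following 16 h exposure of VDR-bla cells to test compound plus 3 nM (final) 1alpha,25-dihydroxyvitamin D3 agonist at 37C.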

[20] = qHTS assay to identify small molecule antagonists of the thyroid receptor (TR) signaling pathway - cell viability counter screen (AID 743064); conditions: GH3.TRE-Luc viability, CellTiter-Fluor, 24 h; activity change, negative = cytotoxic: at 70.3 µM (top of the series) unless noted
Outline: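 GH3.TRE-Luc cells, 4 h pre-plating; cpd + T3 1 nM final; 37 °C 23.5 h; CellTiter-Fluor 30 min; fluorescence read.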
Tags describe the fitted curve by direction and shape or compound fluorescence and quenching.

Sequence of UniProt P37231 (P37231 whole entry, looked up): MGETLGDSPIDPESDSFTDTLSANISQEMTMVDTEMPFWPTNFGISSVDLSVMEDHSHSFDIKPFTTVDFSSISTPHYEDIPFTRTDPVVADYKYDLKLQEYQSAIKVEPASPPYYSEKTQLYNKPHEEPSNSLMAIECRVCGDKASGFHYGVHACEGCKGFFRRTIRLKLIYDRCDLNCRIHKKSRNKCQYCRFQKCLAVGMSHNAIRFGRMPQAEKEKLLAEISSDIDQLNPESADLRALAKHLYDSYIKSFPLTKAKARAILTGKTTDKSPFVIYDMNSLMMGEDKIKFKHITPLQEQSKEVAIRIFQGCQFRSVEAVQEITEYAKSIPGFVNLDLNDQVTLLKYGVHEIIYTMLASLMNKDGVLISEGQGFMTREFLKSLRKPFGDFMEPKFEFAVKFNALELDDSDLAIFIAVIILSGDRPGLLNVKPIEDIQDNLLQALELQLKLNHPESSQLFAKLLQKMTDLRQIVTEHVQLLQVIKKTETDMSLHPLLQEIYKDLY
Sequence of UniProt P19793 (P19793 whole entry, looked up): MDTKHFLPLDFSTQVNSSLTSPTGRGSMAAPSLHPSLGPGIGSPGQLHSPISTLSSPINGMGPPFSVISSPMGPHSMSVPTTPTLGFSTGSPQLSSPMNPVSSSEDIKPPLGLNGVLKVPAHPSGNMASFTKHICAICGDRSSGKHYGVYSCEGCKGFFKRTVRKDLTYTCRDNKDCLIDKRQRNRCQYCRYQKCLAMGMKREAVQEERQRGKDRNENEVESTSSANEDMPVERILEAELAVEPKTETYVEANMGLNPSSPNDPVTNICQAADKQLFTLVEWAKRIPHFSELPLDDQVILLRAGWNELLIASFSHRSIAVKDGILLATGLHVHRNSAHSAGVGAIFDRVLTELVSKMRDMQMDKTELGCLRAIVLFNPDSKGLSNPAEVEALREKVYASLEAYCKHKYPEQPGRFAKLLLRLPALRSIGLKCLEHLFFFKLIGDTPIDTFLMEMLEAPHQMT
Sequence of UniProt P04150 (P04150 whole entry, looked up): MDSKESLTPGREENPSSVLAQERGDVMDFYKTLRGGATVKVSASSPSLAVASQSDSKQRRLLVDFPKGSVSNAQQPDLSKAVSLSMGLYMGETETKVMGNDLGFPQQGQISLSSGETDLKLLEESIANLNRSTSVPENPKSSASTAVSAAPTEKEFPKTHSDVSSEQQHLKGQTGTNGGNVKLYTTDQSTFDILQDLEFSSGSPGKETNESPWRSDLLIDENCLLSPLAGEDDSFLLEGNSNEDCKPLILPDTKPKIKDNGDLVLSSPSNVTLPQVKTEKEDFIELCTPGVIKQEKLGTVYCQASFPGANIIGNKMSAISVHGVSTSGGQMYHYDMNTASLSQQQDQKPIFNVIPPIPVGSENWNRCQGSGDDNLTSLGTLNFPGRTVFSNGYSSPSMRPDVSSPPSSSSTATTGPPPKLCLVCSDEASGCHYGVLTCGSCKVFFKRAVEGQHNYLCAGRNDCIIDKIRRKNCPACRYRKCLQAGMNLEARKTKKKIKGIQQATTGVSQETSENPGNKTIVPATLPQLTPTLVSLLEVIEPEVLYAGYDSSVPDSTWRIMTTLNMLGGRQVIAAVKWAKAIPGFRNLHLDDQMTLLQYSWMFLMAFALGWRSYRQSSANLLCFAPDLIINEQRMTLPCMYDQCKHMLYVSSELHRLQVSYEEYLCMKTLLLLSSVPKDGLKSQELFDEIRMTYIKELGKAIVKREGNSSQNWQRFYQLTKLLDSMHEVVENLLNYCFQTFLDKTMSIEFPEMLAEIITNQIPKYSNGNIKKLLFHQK
Sequence of UniProt P33261 (P33261 whole entry, looked up): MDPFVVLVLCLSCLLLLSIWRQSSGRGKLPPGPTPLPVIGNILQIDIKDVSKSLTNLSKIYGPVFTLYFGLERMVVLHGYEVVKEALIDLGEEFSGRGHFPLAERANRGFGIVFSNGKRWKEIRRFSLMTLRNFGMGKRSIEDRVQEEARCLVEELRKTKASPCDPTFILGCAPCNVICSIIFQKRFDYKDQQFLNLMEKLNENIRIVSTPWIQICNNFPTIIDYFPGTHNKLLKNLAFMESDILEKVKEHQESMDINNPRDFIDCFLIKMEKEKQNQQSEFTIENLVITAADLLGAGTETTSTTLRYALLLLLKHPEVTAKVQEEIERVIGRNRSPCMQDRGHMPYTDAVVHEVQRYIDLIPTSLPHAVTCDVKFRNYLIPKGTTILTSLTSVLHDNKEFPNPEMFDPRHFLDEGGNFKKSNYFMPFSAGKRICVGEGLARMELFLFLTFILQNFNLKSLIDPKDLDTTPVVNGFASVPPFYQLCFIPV
Sequence of UniProt P10635 (P10635 whole entry, looked up): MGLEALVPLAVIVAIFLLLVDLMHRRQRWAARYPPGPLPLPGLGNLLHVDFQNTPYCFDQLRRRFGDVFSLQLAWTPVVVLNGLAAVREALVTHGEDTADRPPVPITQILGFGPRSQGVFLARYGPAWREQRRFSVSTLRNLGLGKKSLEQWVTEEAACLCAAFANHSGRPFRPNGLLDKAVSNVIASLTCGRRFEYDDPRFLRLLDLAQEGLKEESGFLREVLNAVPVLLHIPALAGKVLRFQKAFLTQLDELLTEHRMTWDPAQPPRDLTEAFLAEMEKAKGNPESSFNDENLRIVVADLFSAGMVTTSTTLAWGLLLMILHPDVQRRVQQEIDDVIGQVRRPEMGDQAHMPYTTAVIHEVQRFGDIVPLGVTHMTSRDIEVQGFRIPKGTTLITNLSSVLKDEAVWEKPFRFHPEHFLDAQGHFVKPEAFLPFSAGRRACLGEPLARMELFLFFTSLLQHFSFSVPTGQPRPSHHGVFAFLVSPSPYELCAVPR
Sequence of UniProt P06401 (P06401 whole entry, looked up): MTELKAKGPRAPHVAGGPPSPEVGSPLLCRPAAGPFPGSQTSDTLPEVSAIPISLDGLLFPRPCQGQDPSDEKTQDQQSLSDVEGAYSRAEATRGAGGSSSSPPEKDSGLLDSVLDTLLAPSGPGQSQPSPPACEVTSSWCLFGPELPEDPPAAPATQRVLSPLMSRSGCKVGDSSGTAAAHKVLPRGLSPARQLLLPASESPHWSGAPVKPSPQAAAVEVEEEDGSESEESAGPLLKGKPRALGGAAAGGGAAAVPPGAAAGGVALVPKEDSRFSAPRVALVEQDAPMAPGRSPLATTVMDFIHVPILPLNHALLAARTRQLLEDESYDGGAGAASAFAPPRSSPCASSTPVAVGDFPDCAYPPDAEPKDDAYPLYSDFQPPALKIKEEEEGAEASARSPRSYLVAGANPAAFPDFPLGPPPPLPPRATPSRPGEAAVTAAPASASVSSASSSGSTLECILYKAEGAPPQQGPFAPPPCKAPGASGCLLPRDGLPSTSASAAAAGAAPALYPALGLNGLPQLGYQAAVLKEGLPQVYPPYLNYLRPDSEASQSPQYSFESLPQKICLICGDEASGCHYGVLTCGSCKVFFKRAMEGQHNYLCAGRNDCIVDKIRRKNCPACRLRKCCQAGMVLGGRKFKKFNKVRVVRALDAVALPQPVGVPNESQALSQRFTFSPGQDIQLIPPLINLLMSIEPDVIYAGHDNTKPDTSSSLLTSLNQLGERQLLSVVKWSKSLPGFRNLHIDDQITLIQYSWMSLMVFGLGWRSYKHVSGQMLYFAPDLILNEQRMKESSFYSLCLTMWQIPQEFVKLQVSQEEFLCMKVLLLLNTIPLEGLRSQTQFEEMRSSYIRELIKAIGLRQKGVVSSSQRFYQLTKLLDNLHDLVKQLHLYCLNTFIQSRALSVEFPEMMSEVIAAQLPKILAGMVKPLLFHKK
Sequence of UniProt P05177 (P05177 whole entry, looked up): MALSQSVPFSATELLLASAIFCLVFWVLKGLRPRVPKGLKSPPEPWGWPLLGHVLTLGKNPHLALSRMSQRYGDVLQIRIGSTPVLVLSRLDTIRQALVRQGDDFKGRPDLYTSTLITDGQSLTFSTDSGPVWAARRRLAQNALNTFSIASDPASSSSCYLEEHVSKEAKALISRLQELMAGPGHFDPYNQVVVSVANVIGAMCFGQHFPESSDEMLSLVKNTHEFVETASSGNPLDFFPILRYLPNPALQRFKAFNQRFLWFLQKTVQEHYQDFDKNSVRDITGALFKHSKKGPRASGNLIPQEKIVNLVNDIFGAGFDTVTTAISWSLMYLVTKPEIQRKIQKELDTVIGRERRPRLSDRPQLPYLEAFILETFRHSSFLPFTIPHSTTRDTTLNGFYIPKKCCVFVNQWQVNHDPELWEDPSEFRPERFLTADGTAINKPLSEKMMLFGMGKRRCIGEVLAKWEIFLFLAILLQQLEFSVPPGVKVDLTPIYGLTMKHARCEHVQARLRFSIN
Sequence of UniProt P11473 (P11473 whole entry, looked up): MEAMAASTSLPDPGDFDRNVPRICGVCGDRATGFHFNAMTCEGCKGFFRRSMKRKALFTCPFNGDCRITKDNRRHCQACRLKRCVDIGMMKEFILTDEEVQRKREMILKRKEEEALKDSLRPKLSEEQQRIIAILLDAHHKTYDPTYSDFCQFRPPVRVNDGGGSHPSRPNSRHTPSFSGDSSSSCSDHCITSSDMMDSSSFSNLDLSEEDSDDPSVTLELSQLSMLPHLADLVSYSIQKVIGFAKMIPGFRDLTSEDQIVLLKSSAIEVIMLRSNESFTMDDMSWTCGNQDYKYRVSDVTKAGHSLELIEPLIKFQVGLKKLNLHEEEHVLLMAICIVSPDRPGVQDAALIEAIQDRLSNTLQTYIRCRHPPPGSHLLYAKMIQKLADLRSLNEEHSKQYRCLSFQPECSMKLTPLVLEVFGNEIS

CC1(c2ccccc2)OC(C(=O)O)=CC1=O (centres undefined)
inconclusive: Potency [2] 15.6 µM [partial curve, poor fit] | Potency [6] 26.6 µM | Potency [8] 0.668 µM [inhibitor, single point] | Potency [9] 43.6 µM [inhibitor, single point]
inactive: Potency [1] | Potency [3] | Potency [4] | Potency [5] | Potency [7]

CC(C)=CCC/C(C)=C/C=N/O
inconclusive: Potency [10] 61.6 µM [inhibitor, single point] | Potency [3] 68.6 µM [cytotoxic] | Potency [4] 61.1 µM [cytotoxic, single point] | ratio activity, negative = inhibition [5] 17.9% | Potency [7] 54.9 µM [rising, partial curve, poor fit] | activity change, negative = inhibition [12] -29.8% | Potency [13] 21.7 µM [cytotoxic, full curve] | Potency [14] 48.6 µM [cytotoxic, partial curve] | Potency [15] 79.6 µM [inhibitor, single point]
inactive: Potency [11] | Potency [6]

Cc1cccc(Cl)c1
inactive: Potency [7] | Potency [16]
inconclusive: activity, negative = cytotoxicity [4] -31.3% [cytotoxic] | ratio activity, negative = inhibition [5] 1.18% | Potency [13] 15.4 µM [cytotoxic, single point]

CC1CC(=O)CC(C)(C)C1 (centres undefined)
inactive: Potency [17] | Potency [7] | Potency [13] | Potency [18]
inconclusive: activation [1] 6.76% | ratio activity, negative = MMP loss [2] 24.4% | ratio activity, negative = inhibition [5] 2.48% | Potency [16] 39.9 µM [inhibitor, partial curve]

Nc1cc(N)cc(C(=O)O)c1
inconclusive: activation [17] -3.56% | Potency [6] 0.0123 µM [cytotoxic, full curve, poor fit] | activity change, negative = inhibition [12] 8.19%
inactive: Potency [10] | Potency [5] | Potency [7]

CC(O)C1CCCCC1 (centres undefined)
inconclusive: activation [17] -17.5% | activity change, negative = inhibition [19] 21.1% | activation [7] 15% | Potency [9] 31.7 µM [inhibitor, partial curve, poor fit]

CCC(=O)OC(C)c1ccccc1 (centres undefined)
inconclusive: ratio activity, negative = MMP loss [2] 1.13% | activity change, negative = inhibition [10] 9.48% | Potency [3] 30.6 µM [rising, partial curve] | Potency [19] 0.616 µM [fluorescent]
inactive: Potency [1] | Potency [20] | Potency [17] | Potency [6] | Potency [7] | Potency [13] | Potency [15]
